Experimental data published in PubChem BioAssay AID662 (National Center for Advancing Translational Sciences (NCATS), 2007).
Hit rate of the full screen: of about 71,000 compounds, about 1,800 (2.5%) were called active. The shares of active, inactive and inconclusive entries below differ from those in the screen. Calls come from the whole dose curve; as a rule, active = well fitted activation curve with a large enough effect in the signal ratio, with a control signal flat (not every such curve was filed as active); inconclusive = small, poorly fitted or top-dose-only effect, or effect the other way, or a change in a side signal; inactive = flat fitted curve, though single readings scatter; the % refers to the signal ratio. Potencies beside an inconclusive call are fits to weak or partial responses and may not hold up.

Assay: Cell signaling CRE-BLA (Fsk stim); for activity change, negative = inhibition: % of control where 0% means no effect
Settings: CHO CRE-bla reporter (cAMP response element driving beta-lactamase), forskolin EC10, beta-lactamase ratio; activity change, negative = inhibition: at 38.2 µM (top of the series) unless noted
Method in brief: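 Using CellSensor CRE-bla CHO cells in Opti-MEM with 0.5% dialyzed FBS, compounds were titrated with EC10 NKH 477 for 3 h at 37 °C. CCF4 ratio (460/530 nm) gave %Activity; AC50 derived.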
Potency is the fitted concentration of half-maximal effect; tags give direction and shape of the fitted curve.

SMILES	activity change, negative = inhibition	Potency
CCCC(C)C(=O)Nc1nnc(C)s1 (configuration not stated)	inconclusive: 12.7% [at 7.6 µM]	
COc1cccc(C2CC(c3ccccc3)n3ncnc3N2)c1 (configuration not stated)	inactive: 8.18%	
O=c1c(-c2ccccc2)nc2cnc(Oc3ccccc3)nc2n1Cc1cccs1	inactive: 8.26%	
COc1ccc(CCNC(=O)c2cc(-c3ccccc3O)n[nH]2)cc1OC	inconclusive: 8.97%	
O=C(CN1CCOCCOCCN(CC(=O)Nc2ccccc2)CCOCC1)Nc1ccccc1	inconclusive: -6.18%	
CCc1c(C)n2nc(C)cc2[nH]c1=O	inconclusive: -8.98%	
CCOC(=O)Nc1nc(-c2ccccc2)c(C)s1	inconclusive: 21.1% [at 7.6 µM]	
CC(C)C(c1nnnn1C1CCCC1)N1CCc2ccccc21 (configuration not stated)	inactive: 0.67%	
Cc1oc2nc(SCC(=O)NCc3cccnc3)nc(N)c2c1C	inconclusive: 16.9%	
c1csc(CNc2ncnc3ccc(-c4ccoc4)cc23)c1	inconclusive: -25.2%	
O=C(NCC1CCCO1)C1c2ccccc2C(=O)N1Cc1ccc2c(c1)OCO2 (configuration not stated)	inconclusive: -6.16%	
C=CCOc1ccc(/C(CC)=N/O)c(OC)c1		inconclusive: 10 µM [rising, partial curve]
N#Cc1c(N)n(CCNC(=O)c2cccs2)c2nc3ccccc3nc12		inconclusive: 12.6 µM [rising, partial curve]
C=C(CO)[C@H]1Cc2c(ccc3c2O[C@H]2COc4cc(OC)c(OC)cc4[C@@H]2C3=O)O1	inconclusive: 7.55%	
COc1ccc(N2Cc3cccc(C(=O)N4CCN(C(=O)c5ccco5)CC4)c3C2=O)cc1	inactive: -6.67%	
Cc1cc2cc(CN(CC3CCCO3)C(=O)c3cnccn3)c(=O)[nH]c2cc1C (configuration not stated)	inactive: 17.3%	
Cc1ccc2nc(NC(=O)C3CCCN(S(=O)(=O)c4cccc5nsnc45)C3)sc2c1 (configuration not stated)	inactive: -14.5%	
CC(=O)c1ccc2c3c(cccc13)C(=O)N(c1c(C)nn(C)c1C)C2=O	inconclusive: 20.5%	
Cc1cccc(OCC(O)Cn2c(-n3nc(C)cc3C)nc3c2c(=O)[nH]c(=O)n3C)c1 (configuration not stated)		inconclusive: 10 µM [rising, partial curve]
CC(Nc1ncnc2nc[nH]c12)c1ccccc1 (configuration not stated)	inconclusive: 19.5%	
O=S(=O)(c1ccc(Cl)cc1)N1CCSC1c1ccco1 (configuration not stated)		inconclusive: 0.631 µM [rising, full curve, poor fit]

SMILES	activity change, negative = inhibition	Potency
CCc1cc2cc(C(=O)N3CCN(Cc4ccccc4)CC3)sc2s1	inconclusive: -16.2%	
CCC1C(C#N)=C(N)OC2=C1C(=O)CC(C)(C)C2 (configuration not stated)	inconclusive: 13.7% [at 7.6 µM]	
C=CCn1c(=O)[nH]c2cc(C(=O)N3CCN(c4cc(C)ccc4C)CC3)ccc2c1=O		inconclusive: 0.1 µM [falling, single point]
Cc1cc(C)c2c(CC(=O)NCc3ccco3)coc2c1	inactive: -8.36%	
Cc1cc(OCC(=O)NCCCN2CCOCC2)cc(C)c1Cl	inactive: -11.6%	
Cc1cc(C)n(-c2nnc(C)n2/N=C/c2ccccc2OCc2ccccc2Cl)n1	inconclusive: 52.3% [at 7.6 µM]	
COc1ccc(NC(=O)CC2Sc3ncnn3C2=O)cc1 (configuration not stated)	inconclusive: -8.1%	
O=C1c2ccccc2C(Nc2ccccc2F)N1c1cccnc1 (configuration not stated)		inconclusive: 10 µM [rising, partial curve]
O=S(=O)(c1cccc(-c2nc3n(n2)Cc2ccccc2-3)c1)N1CCCC1		inconclusive: 2 µM [rising, full curve, poor fit]
COc1ccc(NC(=O)N2CCC3(CC2)CCN(C(=O)c2cccn2C)CC3)cc1	inactive: -1.88%	
CCc1c(C)nc(Nc2nc(C)c3cc(OC)ccc3n2)[nH]c1=O		inconclusive: 0.501 µM [rising, full curve, poor fit]
O=c1c2ccccc2ncn1Cc1nc2ccccc2s1	inactive: 22.9%	
CCCCCn1c(SCCCC)nc2c1c(=O)[nH]c(=O)n2C		inconclusive: 7.94 µM [rising, partial curve]
COc1ccccc1C(=O)Nc1ccc(N2CCN(Cc3ccccc3)CC2)cc1	inconclusive: 7.94%	
COC(=O)c1sc(NC(=O)Cc2cccs2)nc1C	inconclusive: 12.8%	
COc1ccc(Cl)cc1-n1c(C)cc(C(=O)O)c1C	inconclusive: -12.5%	
COc1ccc(-c2nnc(Nc3nc4c(OC)cccc4s3)o2)c(OC)c1	inactive: 1.68%	
Cc1cccc2cc(COC(=O)C(C)C)c(=O)[nH]c12	inconclusive: 3.93%	
CCCn1cnc2c1c(=O)n(CCCCC(C)=O)c(=O)n2C		inconclusive: 25.1 µM [rising, partial curve]
COc1ccc(-n2nnnc2SCC(=O)c2ccc(OC)c(OC)c2)cc1		inconclusive: 12.6 µM [rising, partial curve]
COCCn1c(=N)c(C(=O)NCCc2ccccc2)cc2c(=O)n3cccc(C)c3nc21	inconclusive: 19.9%	
